# Data reported in PubChem BioAssay (NCATS).
# Inconclusive means that the source gave no clear call. Such entries were picked first, then a sample of the others. Where the call is inconclusive, the potency comes from a doubtful curve fit. Activity calls are given as the source filed them. Calls follow the shape of the dose curve; as a rule, active = well fitted curve in the direction sought with a large enough effect; inconclusive = small, poorly fitted or top-dose-only effect, or another doubt; inactive = no such curve, though single readings can be large; an effect the other way counts as inactive or inconclusive.
# Assay: BET inhibitor-based combinations targeting novel dependencies in MECOM-rearranged (r) AML: HNT-34 cell line (AID 2202234); also: nearly all actives have a fitted effect of over 35% in size
# Settings: HNT-34 AML viability, CellTiter-Glo luminescence, 48 h; series mostly up to 46 µM
# In short: (§1)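 Luminescent ATP readout (CellTiter-Glo, 15 min at room temperature) after 48 hr drug exposure gave viability. Dose-response curves, normalized to DMSO and empty-well controls, were summarized as area under the curve and its mean-centred Z-score.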
# Potency is read from the fitted curve at half-maximal effect; tags tell the direction and shape of the fitted curve.
row,SMILES,Potency
1,C[C@@H](N)c1ccc(C(=O)Nc2ccnc3[nH]ccc23)cc1,"inconclusive: 14.8 µM [inhibitor, partial curve]"
2,Nc1nc(NCCNc2ncc(-n3ccnc3)c(-c3ccc(Cl)cc3Cl)n2)ccc1[N+](=O)[O-],active: 4.17 µM
3,C[C@@H]1C[C@H]2[C@@H]3CCC4=CC(=O)C=C[C@]4(C)[C@@]3(Cl)[C@@H](O)C[C@]2(C)[C@@]1(OC(=O)c1ccco1)C(=O)CCl,"inconclusive: 23.5 µM [inhibitor, partial curve]"
4,CC(=O)O[C@H]1C(=O)[C@@]2(C)C([C@H](OC(=O)c3ccccc3)[C@]3(O)C[C@H](OC(=O)[C@H](O)[C@@H](NC(=O)c4ccccc4)c4ccccc4)C(C)=C1C3(C)C)[C@]1(OC(C)=O)CO[C@@H]1C[C@@H]2O (some centres undefined),active: 0.0042 µM
5,CN(C)C(=O)C(CCN1CCC(O)(c2ccc(Cl)cc2)CC1)(c1ccccc1)c1ccccc1,active: 20.9 µM
6,Cc1csc(-c2nnc(Nc3ccc(Oc4ncccc4-c4ccnc(N)n4)cc3)c3ccccc23)c1,"inconclusive: 0.0066 µM [inhibitor, full curve]"
7,CC#C[C@]1(O)CC[C@H]2[C@@H]3CCC4=CC(=O)CCC4=C3[C@@H](c3ccc(N(C)C)cc3)C[C@@]21C,"inconclusive: 14.8 µM [inhibitor, partial curve]"
8,COc1ccc(CCN(C)CCCC(C#N)(c2ccc(OC)c(OC)c2)C(C)C)cc1OC (centres undefined),"inconclusive: 23.5 µM [inhibitor, single point]"
9,CS(=O)(=O)N1CCN(Cc2cc3nc(-c4cccc5[nH]ncc45)nc(N4CCOCC4)c3s2)CC1,"inconclusive: 2.63 µM [inhibitor, full curve]"
10,O=C(NCc1ccccc1)c1csc(Nc2ccncn2)n1,active: 10.5 µM
11,C[C@H]1O[C@@H](n2cc(F)c(=O)[nH]c2=O)[C@H](O)[C@@H]1O,"inconclusive: 23.5 µM [inhibitor, single point]"

# Assay: BET inhibitor-based combinations targeting novel dependencies in MECOM-rearranged (r) AML: UCSD-AML1 cell line (AID 2202235); also: nearly all actives have a fitted effect of over 40% in size
# Settings: UCSD-AML1 AML cells viability, CellTiter-Glo, 48 h; series mostly up to 46 µM
# In short: as §1
row,SMILES,Potency
1,Nc1nc(NCCNc2ncc(-n3ccnc3)c(-c3ccc(Cl)cc3Cl)n2)ccc1[N+](=O)[O-],"inconclusive: 11.8 µM [inhibitor, single point]"
2,CN(NC(=O)CC(=O)NN(C)C(=S)c1ccccc1)C(=S)c1ccccc1,active: 0.059 µM
3,CC(=O)O[C@H]1C(=O)[C@@]2(C)C([C@H](OC(=O)c3ccccc3)[C@]3(O)C[C@H](OC(=O)[C@H](O)[C@@H](NC(=O)c4ccccc4)c4ccccc4)C(C)=C1C3(C)C)[C@]1(OC(C)=O)CO[C@@H]1C[C@@H]2O (some centres undefined),"inconclusive: 0.0059 µM [inhibitor, full curve]"
4,Nc1ccc(-c2ccc3ncc4ccc(=O)n(-c5cccc(C(F)(F)F)c5)c4c3c2)cn1,active: 0.0263 µM
5,CN(C)C(=O)C(CCN1CCC(O)(c2ccc(Cl)cc2)CC1)(c1ccccc1)c1ccccc1,"inconclusive: 29.5 µM [inhibitor, single point]"
6,C[C@H](Cc1ccc(O)c(O)c1)[C@@H](C)Cc1ccc(O)c(O)c1,"inconclusive: 13.2 µM [inhibitor, partial curve]"
7,CC#C[C@]1(O)CC[C@H]2[C@@H]3CCC4=CC(=O)CCC4=C3[C@@H](c3ccc(N(C)C)cc3)C[C@@]21C,"inconclusive: 33.2 µM [inhibitor, single point]"
8,Cc1nc2c(-c3cnc(N)nc3)nc(N3CCOCC3)nc2n1C(C)C,"inconclusive: 0.132 µM [inhibitor, full curve]"
9,C[C@H]1O[C@@H](n2cc(F)c(=O)[nH]c2=O)[C@H](O)[C@@H]1O,"inconclusive: 18.6 µM [inhibitor, partial curve]"
10,c1ccc2c(CCNc3ccc(Nc4ccncc4)cc3)c[nH]c2c1,active: 3.72 µM

# Assay: BET inhibitor-based combinations targeting novel dependencies in MECOM-rearranged (r) AML: AML-191 cell line (AID 2202236; also: nearly all actives have a fitted effect of over 35% in size)
# Settings: AML-191 viability, CellTiter-Glo luminescence, 48 h; series mostly up to 46 µM
# In short: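 Luminescent ATP readout (CellTiter-Glo) after 48 hr drug exposure gives viability. Curves span 11 concentrations and are normalized to DMSO and empty wells. Activity is reported as area under the curve and its Z-transform within each cell line.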
row,SMILES,Potency
1,Nc1nc(NCCNc2ncc(-n3ccnc3)c(-c3ccc(Cl)cc3Cl)n2)ccc1[N+](=O)[O-],"inconclusive: 4.68 µM [inhibitor, partial curve, poor fit]"
2,C[C@@H]1C[C@H]2[C@@H]3CCC4=CC(=O)C=C[C@]4(C)[C@@]3(Cl)[C@@H](O)C[C@]2(C)[C@@]1(OC(=O)c1ccco1)C(=O)CCl,"inconclusive: 33.2 µM [inhibitor, partial curve]"
3,NC1(C(=O)N[C@@H](CCO)c2ccc(Cl)cc2)CCN(c2ncnc3[nH]ccc23)CC1,"inconclusive: 16.6 µM [inhibitor, partial curve]"
4,CC(C)C[C@H](NC(=O)[C@@H](O)[C@H](N)Cc1ccccc1)C(=O)O,inactive
5,CN(NC(=O)CC(=O)NN(C)C(=S)c1ccccc1)C(=S)c1ccccc1,active: 0.0372 µM
6,CN(C)C(=O)C(CCN1CCC(O)(c2ccc(Cl)cc2)CC1)(c1ccccc1)c1ccccc1,"inconclusive: 18.6 µM [inhibitor, partial curve]"
7,CC(C)NCC(O)c1ccc(NS(C)(=O)=O)cc1 (centres undefined),"inconclusive: 33.2 µM [inhibitor, partial curve, poor fit]"
8,Cc1csc(-c2nnc(Nc3ccc(Oc4ncccc4-c4ccnc(N)n4)cc3)c3ccccc23)c1,"inconclusive: 0.0742 µM [inhibitor, full curve]"
9,CC#C[C@]1(O)CC[C@H]2[C@@H]3CCC4=CC(=O)CCC4=C3[C@@H](c3ccc(N(C)C)cc3)C[C@@]21C,"inconclusive: 23.5 µM [inhibitor, single point]"
10,COc1ccc(CCN(C)CCCC(C#N)(c2ccc(OC)c(OC)c2)C(C)C)cc1OC (centres undefined),"inconclusive: 23.5 µM [inhibitor, partial curve, poor fit]"
11,Cc1nc2c(-c3cnc(N)nc3)nc(N3CCOCC3)nc2n1C(C)C,"inconclusive: 0.263 µM [inhibitor, full curve]"
12,CS(=O)(=O)N1CCN(Cc2cc3nc(-c4cccc5[nH]ncc45)nc(N4CCOCC4)c3s2)CC1,"inconclusive: 2.09 µM [inhibitor, full curve]"
13,C[C@H]1O[C@@H](n2cc(F)c(=O)[nH]c2=O)[C@H](O)[C@@H]1O,"inconclusive: 18.6 µM [inhibitor, partial curve]"
